Assay results from patent publication US12435061B2 (priority 2020, dated 2025).

Assays:
DS-Nh mouse model = test: DS-Nh TRPV3 mutation genetic mouse model (Example 16); type: in vivo
male CD-1 mice = details: CD-1, mouse, in vivo, po, 90 min
[1] = tested on: Escherichia coli WP2 uvrA; test: Bacterial mutation assay (reverse mutation), Escherichia coli; details: WP2 uvrA, 1000 μg/pl
[2] = PK/toxicokinetics of KM-001 via IV and topical routes in minipig; details: for AUC(0-inf) / C0 / Cmax / half-life / AUC(0-t) / Tmax: male, minipig, plasma, iv
[3] = tested on: Salmonella typhimurium TA1535, TA1537, TA98, TA100; test: Bacterial mutation assay (reverse mutation), Salmonella typhimurium

For O=C(c1ccc(F)cn1)N1CCC(c2ccc(-c3ccccc3C3CC3)cc2CO)C1 (centres unmarked) [KM-001], the epidermis differentiation (DS-Nh mouse model) was “normalize epidermis differentiation”, the inflammation (DS-Nh mouse model) was “reduce inflammation” and the “Plasma levels at sac” value (male CD-1 mice; 3 mg/kg) was 0.0191 ± 0.0058 µg/mL. For the same compound, the “Plasma levels at sac” value (male CD-1 mice; 10 mg/kg) was 0.0569 ± 0.0128 µg/mL, the “Plasma levels at sac” value (male CD-1 mice; 30 mg/kg) was 0.18 ± 0.035 µg/mL and the “Mean of Plate counts (revertant colonies)” value (“Mean of Plate counts” for short) ([1]; with metabolic activation) was 35. For the same compound, the “Mean of Plate counts” value ([1]; without metabolic activation) was 30, the CL/F ([2]; IV 0.50 mg/kg, Day 0, male pig) was 1.48 L/h/kg and the Vz/F ([2]; IV 0.50 mg/kg, Day 0, male pig) was 6.69 L/kg. It also gave a CL/F ([2]; IV 8.00 mg/kg, Day 1, male pig) of 1.79 L/h/kg, a Vz/F ([2]; IV 8.00 mg/kg, Day 1, male pig) of 24.6 L/kg and an AUC(0-inf) ([2]; 0.5 mg/kg) of 0.337 µg·h/mL. The C0 ([2]; 0.5 mg/kg) was 0.552 µg/mL, the Cmax ([2]; 0.5 mg/kg) was 0.418 µg/mL and the half-life ([2]; 0.5 mg/kg) was 3.13 h. For the same compound, the AUC(0-t) ([2]; 0.5 mg/kg, AUC0-t, IV 0.50 mg/kg, Day 0, male pig) was 0.275 µg·h/mL, the Tmax ([2]; 0.5 mg/kg, IV 0.50 mg/kg, Day 0, male pig) was 5 min and the AUC(0-inf) ([2]; 8 mg/kg) was 4.46 µg·h/mL. It also gave a C0 ([2]; 8 mg/kg) of 2.71 µg/mL, a Cmax ([2]; 8 mg/kg) of 2.19 µg/mL and a half-life ([2]; 8 mg/kg) of 9.5 h. It also gave an AUC(0-t) ([2]; 8 mg/kg, AUC0-24 h, IV 8.00 mg/kg, Day 1, male pig) of 3.62 µg·h/mL, an AUC(0-t) ([2]; 8 mg/kg, AUC0-t, IV 8.00 mg/kg, Day 1, male pig) of 3.62 µg·h/mL and a Tmax ([2]; 8 mg/kg, IV 8.00 mg/kg, Day 1, male pig) of 5 min. For the same compound, the “Mean of Plate counts” value ([3]; TA98, 1000 μg/pl, with metabolic activation) was 42, the “Mean of Plate counts” value ([3]; TA98, 1000 μg/pl, without metabolic activation) was 32 and the “Mean of Plate counts” value ([3]; TA100, 1000 μg/pl, with metabolic activation) was 147. The “Mean of Plate counts” value ([3]; TA100, 1000 μg/pl, without metabolic activation) was 129, the “Mean of Plate counts” value ([3]; TA1535, 1000 μg/pl, with metabolic activation) was 16 and the “Mean of Plate counts” value ([3]; TA1535, 1000 μg/pl, without metabolic activation) was 15. For the same compound, the “Mean of Plate counts” value ([3]; TA1537, 1000 μg/pl, with metabolic activation) was 17 and the “Mean of Plate counts” value ([3]; TA1537, 1000 μg/pl, without metabolic activation) was 19.

Like-named read-outs stand apart in the source and are kept apart here.
